# Several values for one entry are separate records, joined by “and”; a condition that tells them apart may be missing. Equal entries are not always repeated. The whole screen tested about 52,000 compounds, of which about 4,300 (8.3%) were called active. No stated cut-off is given here; in the data, active means survival mostly below about 52% (no sharp cut-off); inactive means mostly above about 56%. Some of the results follow. A structure can be active in one record and inactive in another.
# Test system: DeltatarO mutant
# Assay: S. aureus survival, RN4220 and DeltatarO strains – OD600, teichoic acid synthesis inhibitors, primary screen (AID 463173)
# Conditions: S. aureus RN4220 wild type/DeltatarO growth, OD600, 18 h, stronger effect = lower value, screened at 18.75 µg/mL (by protocol)
row,Compound,survival
1,Cc1cc(NC(=O)CSc2nc(-c3cccc(F)c3)nc3c2c(=O)n(C)c(=O)n3C)no1,inactive: 78%
2,CCc1ccc(NC(=O)Cn2c(=O)n(CCCC(=O)NCc3ccccc3Cl)c(=O)c3ccccc32)cc1,inactive: 105%
3,Cc1ccc(-c2nc3cc(NC(=O)Cc4ccc(Cl)cc4)ccc3o2)cc1,inactive: 68%
4,COc1cc(NS(=O)(=O)c2ccc3c(c2)CC(C)N3C(=O)C2CCC2)cc(OC)c1OC (configuration not stated),inactive: 85%
5,COc1ccc2c(Sc3ccc(C)cc3)c(C(=O)NCC(C)c3ccccc3)[nH]c2c1 (configuration not stated),inactive: 91%
6,COc1ccc(CCNc2ncnc3onc(-c4ccc(Cl)cc4)c23)c(OC)c1,inactive: 86%
7,CCc1ccc(NC(=O)CN2C(=O)C3CCCN3c3ccc(S(=O)(=O)N(CC)CC)cc32)cc1 (configuration not stated),inactive: 109%
8,Cn1cc(S(=O)(=O)N2CCCCCC2)cc1C(=O)N1CCN(c2ccccc2F)CC1,inactive: 69%
9,Cc1ccc(N(CC(O)Cn2c3ccccc3c3ccccc32)S(=O)(=O)c2ccc(F)cc2)cc1 (configuration not stated),inactive: 110%
10,Cc1c(CC(=O)N2CCCCC2)c(=O)oc2cc(O)ccc12,inactive: 50%
11,Cc1ccccc1Nc1sc(C(=O)c2ccccc2)c(N)c1S(C)(=O)=O,inactive: 99%
12,CC(C)c1ccc(-c2noc(C3CCCN(C(=O)c4ccccc4)C3)n2)cc1 (configuration not stated),inactive: 86%
13,CCOC(=O)c1ccc(OC(=O)c2cn(-c3ccc(C)cc3)c(=O)c3ccccc23)cc1,inactive: 67%
14,Cc1cc(OCC(=O)N(Cc2ccc(N(C)C)cc2)Cc2ccco2)cc(C)c1Cl,inactive: 52%
15,COc1ccc(NC(=O)Cn2c(=O)n(Cc3ccco3)c(=O)c3sc4ccccc4c32)c(OC)c1,inactive: 80%
16,Cc1ccc(NC(=O)C2CCCN(C(=O)c3cnn(-c4ccccc4)c3-n3cccc3)C2)cc1 (configuration not stated),inactive: 80%
17,COCCCN1C(=O)c2[nH]nc(-c3cc(C)ccc3O)c2C1c1ccc(F)cc1 (configuration not stated),inactive: 66%
18,COc1ccc(CNC(=O)c2cc3sccc3n2Cc2ccc(F)cc2)cc1,inactive: 75%
19,COc1ccc(CNCCC(c2ccc(C)cc2)c2ccco2)cc1 (configuration not stated),inactive: 64%
20,O=C(Nc1noc2ccccc12)c1cccc(Cl)c1Cl,inactive: 86%
21,Cc1ccccc1NC(=O)C(Cc1ccccc1)N1Cc2ccccc2C1=O (configuration not stated),inactive: 92%
22,Cc1cccc(OCC(=O)Nc2ccc(S(=O)(=O)Nc3onc(C)c3C)cc2)c1C,active: 40%

row,Compound,survival
1,COc1ccccc1-c1nc2c(c(SCc3cc(C)ccc3C)n1)Cc1c(CO)cnc(C)c1O2,active: 41%
2,Cc1ccc(CNC(=O)c2cc3c(=O)oc4ccc(C)cc4c3s2)cc1,inactive: 91%
3,COc1ccc(N(CC(=O)N2CCN(c3ccccc3F)CC2)S(=O)(=O)c2c(C)noc2C)cc1,inactive: 119%
4,CCCNC(=O)Cn1nc(-c2ccc(C)c(C)c2)c2cnc3ccc(OC)cc3c21,inactive: 74%
5,COc1ccccc1NC(=O)Cn1cnc2ccc(S(=O)(=O)N3CCC(C)CC3)cc2c1=O,inactive: 66%
6,COc1ccc2oc(=O)c(C(=O)NCCc3c(C)[nH]c4ccc(C)cc34)cc2c1,active: 40%
7,Cc1ccc(-n2nc(C)c3c(C)cc(=O)n(CC(=O)Nc4cc(Cl)ccc4C)c32)cc1,inactive: 125%
8,Nc1ccc2oc(-c3ccccc3Br)nc2c1,inactive: 87% and active: 39%
9,Cc1cccn2c(=O)cc(COc3ccc(NC(=O)C(C)C)cc3)nc12,inactive: 87%
10,COC(=O)c1sccc1S(=O)(=O)N(CC(=O)Nc1ccccc1C)c1ccc(Cl)cc1,inactive: 130%
11,Cc1ccccc1NC(=O)CSc1nc2ccc(NC(=O)CCc3ccccc3)cc2s1,inactive: 71%
12,O=C(O)CSc1nnnn1C1CCCCC1,inactive: 56%
13,CCc1nnc(NC(=O)CSc2nc3c([nH]c4ccccc43)c(=O)n2-c2ccc(F)cc2)s1,inactive: 84%
14,Cc1ccc2oc(=O)c3cc(C(=O)Nc4ccc(C)c(F)c4)sc3c2c1,inactive: 77%
15,COc1ccc(Cn2nnnc2C(c2cccs2)N2CCOCC2)cc1 (configuration not stated),inactive: 93%
16,Cc1c(Cl)cccc1NC(=O)c1cc(S(=O)(=O)N2CCCCC2)cn1C,inactive: 99%
17,CC(O)C(=O)NS(=O)(=O)c1ccccc1 (configuration not stated),inactive: 107%
18,COc1ccc(NC(=O)Cn2nnc(C(=O)NCc3ccco3)c2N)c(OC)c1,inactive: 108%
19,COc1ccccc1NC(=O)c1c(C)cc(C)nc1SCC(=O)Nc1ccc(C)cc1,inactive: 51%
20,Cc1cc(Nc2cccc(Br)c2)n2c(nc3ccccc32)c1C#N,inactive: 58%
21,Cc1ccc(N2CCN(C(=O)c3cn(C)c4ccc(S(=O)(=O)N5CCCC5)cc4c3=O)CC2C)cc1 (configuration not stated),inactive: 143%
22,CCOc1cc(C(Nc2cc(C)ccn2)c2ccc3cccnc3c2O)ccc1OC (configuration not stated),inactive: 146%

row,Compound,survival
1,COC(=O)C1=C(C)NC(=O)/C1=C\c1ccc(C)cc1,inactive: 100%
2,CC(=O)Nc1ccc(S(=O)(=O)NCC2CCC(C(=O)NCc3ccccc3)CC2)cc1 (configuration not stated),inactive: 71%
3,O=C(CSc1nc2c([nH]c3ccccc32)c(=O)n1-c1ccc(Cl)cc1)NC1CCCCC1,inactive: 87%
4,CCCCNC(=O)Nc1ccc2c(c1)N(C)C(=O)c1ccccc1S2,inactive: 59%
5,CCc1ccc(NC(=O)N2CCN(Cc3nc4ccc(C)cc4o3)CC2)cc1,inactive: 79%
6,COc1cccc(NC(=O)CN2C(=O)CC(c3ccco3)Sc3ccccc32)c1 (configuration not stated),inactive: 67%
7,Cc1cccc(C)c1NC(=O)C(=O)NCC(c1cccnc1)N1CCc2ccccc21 (configuration not stated),inactive: 62%
8,COC(=O)c1sc(-c2ccccc2)cc1NC(=O)c1cccc(Cl)c1,active: 34%
9,COc1cc(NC(=O)c2cc3c(=O)n(Cc4ccco4)ccc3nc2C)cc(OC)c1OC,inactive: 75%
10,O=C(C1CCC(Cn2c(=O)c3sccc3n(Cc3ccccc3F)c2=O)CC1)N1CCOCC1 (configuration not stated),inactive: 76%
11,O=C(NCc1ccco1)c1ccc(S(=O)(=O)N2CCCc3ccccc32)cc1,inactive: 82%
12,CCOc1ccc(NC(=O)CN2C(=O)c3ccccc3Sc3ccc(C(=O)OC)cc32)cc1,inactive: 74%
13,COc1cc(NC(=O)CSc2nc(-c3ccccc3)no2)cc(OC)c1,inactive: 80%
14,Cc1cc(C)cc(-n2c(SCC(=O)NCc3ccc(F)cc3)nc3c([nH]c4ccccc43)c2=O)c1,inactive: 91%
15,Cc1ccc2c(c1)c(=O)c1ccccc1n2CCCC(=O)Nc1ccc(Cl)c(Cl)c1,active: 45%
16,CCOC(=O)N1CCc2c(sc(NCc3cccs3)c2C(=O)Nc2cc(Cl)ccc2OC)C1,inactive: 78%
17,COc1ccc(CN(C(=O)c2cc(=O)c3ccccc3o2)C2CCS(=O)(=O)C2)cc1OC (configuration not stated),inactive: 113%
18,Cc1ccc(S(=O)(=O)N2C(=S)SCC2(C)C)cc1,inactive: 73%
19,CCOC(=O)c1c(NC(=O)c2ccc(S(=O)(=O)N(CC(C)C)CC(C)C)cc2)sc2c1CCN(CC)C2,inactive: 66%
20,N#CC(C#N)=Cc1cn(-c2ccccc2)nc1-c1ccccc1,inactive: 68%
21,O=C(CSc1nccn1Cc1ccccc1)Nc1nc2ccccc2s1,inactive: 117%
22,COc1ccc(OC)c(NC(=O)COCc2cc(-c3ccco3)on2)c1,inactive: 49%

row,Compound,survival
1,O=C(Nc1cccc(C(F)(F)F)c1)c1cc2nc(-c3ccco3)cc(C(F)(F)Cl)n2n1,inactive: 64%
2,Cc1cc(C)c(Cn2c(=O)n(Cc3ccccc3)c(=O)c3c(C)c(C)sc32)c(C)c1,inactive: 49%
3,Cc1ccc(S(=O)(=O)c2nnn(CC(=O)Nc3ccccc3C)c2N)cc1,inactive: 95%
4,COc1ccc(-n2nc(C(=O)N3CCCCC3)c3c4ccccc4n(C)c3c2=O)cc1Cl,inactive: 127%
5,COc1ccc(OCC(=O)N2CCN(S(C)(=O)=O)CC2)cc1,inactive: 67%
6,CCOC(=O)c1cc(-c2ccccc2)n(CCC(=O)NCCc2ccc(C)cc2)c1C,inactive: 71%
7,C1CCC(Nc2nc(N3CCOCC3)nc(N3CCOCC3)n2)CC1,inactive: 90%
8,Cc1ccc(-n2c(C)cc(/C=C(/C#N)c3ccccc3)c2C)cc1,inactive: 103%
9,COc1ccc(N2CCN(S(=O)(=O)c3cc(Br)cc4c3N(C(=O)C3CC3)CC4)CC2)cc1,inactive: 77%
10,Cc1ccc(NC(=O)Cn2c(=O)n(Cc3ccco3)c(=O)c3sc4ccccc4c32)c(C)c1,inactive: 103%
11,CC(C)(C)OC(=O)N1CCC(c2c(C(=O)N3CCN(c4ccccn4)CC3)cnn2-c2cccc(F)c2)CC1,inactive: 77%
12,CCOC(=O)c1c(C)c(-c2ccccc2)n(CC(=O)NCc2ccccc2)c1C,inactive: 75%
13,COc1cc2c(=O)c(S(=O)(=O)c3ccc(C(C)C)cc3)cn(Cc3ccccc3C)c2cc1OC,inactive: 64%
14,Cc1ccc(C(=O)NCC(c2ccco2)S(=O)(=O)c2ccccc2)cc1C (configuration not stated),inactive: 89%
15,COCCNC(=O)Cn1cnc2sc(C)c(S(=O)(=O)N3CCN(c4ccccc4OC)CC3)c2c1=O,inactive: 145%
16,CCc1nn2c(=O)cc(COC(=O)c3ccccc3NC(=O)COc3ccc(F)cc3)nc2s1,inactive: 92%
17,COc1cc(CNCCSc2nnnn2C)ccc1OCc1ccc(F)cc1,inactive: 122%
18,CC(CNC(=O)c1nnc(Cc2cccc(F)c2)o1)c1ccccc1 (configuration not stated),inactive: 76%
19,CCOC(=O)c1[nH]c(C)c(CCC(=O)Nc2cccc(C(F)(F)F)c2)c1C,inactive: 87%
20,CCOc1ccc(-n2cc(-c3ccccc3)c3c(NC4CCCCC4)ncnc32)cc1,inactive: 78%
21,Cc1nn(-c2ccccc2)c(OC(=O)c2ccccc2Cl)c1S(=O)(=O)c1ccccc1,inactive: 84%

# Source: PubChem BioAssay AID463173 (ICCB-Longwood Screening Facility, Harvard Medical School, 2010)
